# According to patent publication US5140009A (Tap Pharmaceuticals, Inc., priority 1990, dated 1992):
# Part of at least one peptide drawing is inferred or uncertain, most often the ends. For part of these data: At least one compound was matched to its structure with a doubt left. Numbered stars: 1 amine (or outer) side, 2 acyl side, 3 side chain; on linkers, the order of the positions; unused ones are H or OH. Square brackets hold non-standard residues; d marks the D form. Peptide text beside a SMILES is read from it. * marks the point of attachment. Propanoyl(3-indol-3-yl) = O=C(CCc1c[nH]c2ccccc12)*; Propanoyl(3-(4-F-phenyl)) = O=C(CCc1ccc(F)cc1)*; Acetyl(1-naphthyl) = O=C(Cc1cccc2ccccc12)*; d1Nal = N[C@H](Cc1cccc2ccccc12)C(=O)O; d2Nal = N[C@H](Cc1ccc2ccccc2c1)C(=O)O; dLys(iPr) = CC(C)NCCCC[C@@H](N)C(=O)O; Lys(iPr) = CC(C)NCCCC[C@H](N)C(=O)O; NMeY = CN[C@@H](Cc1ccc(O)cc1)C(=O)O; dBta = N[C@H](Cc1csc2ccccc12)C(=O)O; NMeF = CN[C@@H](Cc1ccccc1)C(=O)O; d3Pal = N[C@H](Cc1cccnc1)C(=O)O; Cha = N[C@@H](CC1CCCCC1)C(=O)O; Nicotinoyl = O=C(c1cccnc1)*; Morpholide = C1CN(*)CCO1; CO = O=C([*:1])[*:2]
# Target: T1, LHRH receptors (Rattus norvegicus, UniProt P30969)
# T1 construct: Pituitary membranes containing LHRH receptors are prepared in batches from quick-frozen rat pituitaries; tissue Hilltop Labs; host or cells: rat pituitary membranes
# T1 sequence (P30969 1-327): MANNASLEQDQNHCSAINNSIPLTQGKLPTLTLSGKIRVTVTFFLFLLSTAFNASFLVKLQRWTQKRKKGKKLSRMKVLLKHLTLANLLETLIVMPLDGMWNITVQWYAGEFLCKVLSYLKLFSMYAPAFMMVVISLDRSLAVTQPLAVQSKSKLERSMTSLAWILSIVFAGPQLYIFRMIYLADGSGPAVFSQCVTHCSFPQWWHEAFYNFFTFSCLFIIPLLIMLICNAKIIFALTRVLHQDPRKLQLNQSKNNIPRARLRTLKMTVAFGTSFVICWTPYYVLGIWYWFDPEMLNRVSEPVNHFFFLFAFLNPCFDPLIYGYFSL
# Assay: Receptor Binding (radioligand receptor binding assay)
# Conditions: table 3; rat pituitary membranes, radioiodinated [D-Leu^6 -des Gly^10 ]-LHRH ethyl amide 50 pM, 2 hours at 4° C.
row,SMILES,Receptor Binding pkI
1,"CCNC(=O)[C@@H]1CCCN1C(=O)[C@H](CCCNC(=N)N)NC(=O)[C@H](CC(C)C)NC(=O)[C@@H](Cc1c[nH]c2ccccc12)NC(=O)[C@H](Cc1ccc(O)cc1)N(C)C(=O)[C@H](CO)NC(=O)CCc1c[nH]c2ccccc12 [Compound 57, N-(3-(3-Indole)propionyl)-Ser-N-Me-Tyr-D-Trp-Leu-Arg-Pro-NHEt] ({Propanoyl(3-indol-3-yl)}-S[NMeY][dW]LRP-NHEt)",9.67
2,"CC(C)C[C@H](NC(=O)[C@@H](Cc1c[nH]c2ccccc12)NC(=O)[C@H](Cc1ccc(O)cc1)NC(=O)[C@H](CO)NC(=O)[C@H](Cc1c[nH]c2ccccc12)NC(=O)[C@H](Cc1ccccc1)NC(=O)N1CCOCC1)C(=O)N[C@@H](CCCNC(=N)N)C(=O)N1CCC[C@H]1C(=O)N[C@H](C)C(N)=O [Compound 118, N-(N-alpha-Morpholino-carbonyl)-Phe-Trp-Ser-Tyr-D-Trp-Leu -Arg-Pro-D-AlaNH2] ({Morpholide-CO}-FWSY[dW]LRP[dA]-NH2)",8.65

# Same assay, conditions: table 4; rat pituitary membranes, radioligand 50 pM, 2 hours at 4° C.
row,SMILES,Receptor Binding pkI
1,"CC(C)C[C@H](NC(=O)[C@@H](Cc1c[nH]c2ccccc12)NC(=O)[C@H](Cc1ccc(O)cc1)NC(=O)[C@H](CO)NC(=O)[C@H](Cc1c[nH]c2ccccc12)NC(=O)[C@H](Cc1ccccc1)NC(=O)N1CCOCC1)C(=O)N[C@@H](CCCNC(=N)N)C(=O)N1CCC[C@H]1C(=O)N[C@H](C)C(N)=O [Compound 219, N-alpha-Morpholinocarbonyl-Phe-Trp-Ser-Tyr-D-Trp-Leu-Arg-Pro-D-AlaNH2] ({Morpholide-CO}-FWSY[dW]LRP[dA]-NH2)",9.16

# System: male castrate rats
# Assay: In vivo LH Inhibiton
# Parameters: species or system rat
# Conditions: table 4, 30 ug/kg subcutaneously by bolus injection, AUC of log (LHt /LHi)
# Procedure: (c) In vivo LH Inhibiton. The compound to be tested is administered at 30 ug/kg subcutaneously by bolus injection to male castrate rats and blood samples are collected periodically over 24 hours. The AUC (area under the curve) of the LH suppression data as a function of time is calculated using the formula log (LHt /LHi) wherein LHt is the LH concentration in the blood at time t and LHi is the initial baseline LH concentration in the blood. The AUC values are negative numbers.
row,SMILES,AUC (24 hr. after 30 ug/kg)
1,"CC(C)C[C@H](NC(=O)[C@@H](CO)NC(=O)[C@H](Cc1ccc(O)cc1)N(C)C(=O)[C@H](CO)NC(=O)[C@@H](Cc1cccc2ccccc12)NC(=O)CCc1ccc(F)cc1)C(=O)N[C@@H](CCCNC(=N)N)C(=O)N1CCC[C@H]1C(=O)N[C@H](C)C(N)=O [Compound 181, (3-10)[N-(3-(4-Fluorophenyl)propionyl)-D-1-Nal^3 -NMeTyr^5 -D-Ser^6 -D-Ala^10]LHRH] ({Propanoyl(3-(4-F-phenyl))}-[d1Nal]S[NMeY][dS]LRP[dA]-NH2)",-363
2,"CC(C)C[C@H](NC(=O)[C@@H](Cc1cccnc1)NC(=O)[C@H](Cc1ccc(O)cc1)N(C)C(=O)[C@H](CO)NC(=O)[C@@H](Cc1cccc2ccccc12)NC(=O)CCc1ccc(F)cc1)C(=O)N[C@@H](CCCNC(=N)N)C(=O)N1CCC[C@H]1C(=O)N[C@H](C)C(N)=O [Compound 184, (3-10)[N-(3-(4-Fluorophenyl)propionyl)-D-1-Nal^3 -NMeTyr^5 -D-3-Pal^6 -D-Ala^10]LHRH] ({Propanoyl(3-(4-F-phenyl))}-[d1Nal]S[NMeY][d3Pal]LRP[dA]-NH2)",-442
3,"C[C@@H](NC(=O)[C@@H]1CCCN1C(=O)[C@H](CCCNC(=N)N)NC(=O)[C@H](CC1CCCCC1)NC(=O)[C@@H](CCCCN)NC(=O)[C@H](Cc1ccc(O)cc1)N(C)C(=O)[C@H](CO)NC(=O)[C@@H](Cc1cccc2ccccc12)NC(=O)CCc1ccc(F)cc1)C(N)=O [Compound 185, (3-10)[N-(3-(4-Fluorophenyl)propionyl)-D-1-Nal^3 -NMeTyr^5 -D-Lys^6 -Cha^7 -D-Ala^10]LHRH] ({Propanoyl(3-(4-F-phenyl))}-[d1Nal]S[NMeY][dK][Cha]RP[dA]-NH2)",-879
4,"CC(C)C[C@H](NC(=O)[C@@H](CCCCN)NC(=O)[C@H](Cc1ccc(O)cc1)N(C)C(=O)[C@H](CO)NC(=O)[C@@H](Cc1ccc2ccccc2c1)NC(=O)CCc1ccc(F)cc1)C(=O)N[C@@H](CCCNC(=N)N)C(=O)N1CCC[C@H]1C(=O)N[C@H](C)C(N)=O [Compound 186, (3-10)[N-(3-(4-Fluorophenyl)propionyl)-D-2-Nal^3 -NMeTyr^5 -D-Lys^6 -D-Ala^10]LHRH] ({Propanoyl(3-(4-F-phenyl))}-[d2Nal]S[NMeY][dK]LRP[dA]-NH2)",-378
5,"CC(C)C[C@H](NC(=O)[C@@H](CCCCNC(=O)c1cccnc1)NC(=O)[C@H](Cc1ccc(O)cc1)N(C)C(=O)[C@H](CO)NC(=O)[C@@H](Cc1ccc2ccccc2c1)NC(=O)CCc1ccc(F)cc1)C(=O)N[C@@H](CCCNC(=N)N)C(=O)N1CCC[C@H]1C(=O)N[C@H](C)C(N)=O [Compound 187, (3-10)[N-(3-(4-Fluorophenyl)propionyl)-D-2-Nal^3 -NMeTyr^5 -D-Lys^6 (N-epsilon-nicotinyl)-D-Ala^10]LHRH] ({Propanoyl(3-(4-F-phenyl))}-[d2Nal]S[NMeY][dK](Nicotinoyl)LRP[dA]-NH2)",-239
6,"CC(C)C[C@H](NC(=O)[C@@H](CCCCN)NC(=O)[C@H](Cc1ccccc1)N(C)C(=O)[C@H](CO)NC(=O)[C@@H](Cc1cccc2ccccc12)NC(=O)CCc1ccc(F)cc1)C(=O)N[C@@H](CCCNC(=N)N)C(=O)N1CCC[C@H]1C(=O)N[C@H](C)C(N)=O [Compound 189, (3-10)[N-(3-(4-Fluorophenyl)propionyl)-D-1-Nal^3 -NMePhe^5 -D-Lys^6 -D-Ala^10]LHRH] ({Propanoyl(3-(4-F-phenyl))}-[d1Nal]S[NMeF][dK]LRP[dA]-NH2)",-442
7,"CC(C)C[C@H](NC(=O)[C@@H](CCCCNC(C)C)NC(=O)[C@H](Cc1ccc(O)cc1)N(C)C(=O)[C@H](CO)NC(=O)[C@@H](Cc1csc2ccccc12)NC(=O)CCc1ccc(F)cc1)C(=O)N[C@@H](CCCNC(=N)N)C(=O)N1CCC[C@H]1C(=O)N[C@H](C)C(N)=O [Compound 198, (3-10)[N-(3-(4-Fluorophenyl)propionyl)-D-3-Bal^3 -NMeTyr^5 -D-Lys^6 (N-epsilon-isopropyl)-D-Ala^10]LHRH] ({Propanoyl(3-(4-F-phenyl))}-[dBta]S[NMeY][dLys(iPr)]LRP[dA]-NH2)",-769
8,"CC(C)C[C@H](NC(=O)[C@@H](CCCCN)NC(=O)[C@H](Cc1ccc(O)cc1)N(C)C(=O)[C@H](CO)NC(=O)[C@@H](Cc1cccc2ccccc12)NC(=O)CCc1ccc(F)cc1)C(=O)N[C@@H](CCCCNC(C)C)C(=O)N1CCC[C@H]1C(=O)N[C@H](C)C(N)=O [Compound 199, (3-10)[N-(3-(4-Fluorophenyl)propionyl)-D-1-Nal^3 -NMeTyr^5 -D-Lys^6 -Lys^8 (N-epsilon-isopropyl)-D-Ala^10]LHRH] ({Propanoyl(3-(4-F-phenyl))}-[d1Nal]S[NMeY][dK]L[Lys(iPr)]P[dA]-NH2)",-924
9,"CC(C)C[C@H](NC(=O)[C@@H](Cc1cccnc1)NC(=O)[C@H](Cc1ccc(O)cc1)NC(=O)[C@H](CO)NC(=O)[C@@H](Cc1cccc2ccccc12)NC(=O)CCc1ccc(F)cc1)C(=O)N[C@@H](CCCCNC(C)C)C(=O)N1CCC[C@H]1C(=O)N[C@H](C)C(N)=O [Compound 201, (3-10)[N-(3-(4-Fluorophenyl)propionyl)-D-1-Nal^3 -D-3Pal^6 -Lys^8 (N-epsilon-isopropyl)-D-Ala^10]LHRH] ({Propanoyl(3-(4-F-phenyl))}-[d1Nal]SY[d3Pal]L[Lys(iPr)]P[dA]-NH2)",-302
10,"CC(C)C[C@H](NC(=O)[C@@H](Cc1cccnc1)NC(=O)[C@H](Cc1ccc(O)cc1)N(C)C(=O)[C@H](CO)NC(=O)[C@@H](Cc1cccc2ccccc12)NC(=O)CCc1ccc(F)cc1)C(=O)N[C@@H](CCCCNC(C)C)C(=O)N1CCC[C@H]1C(=O)N[C@H](C)C(N)=O [Compound 208, (3-10)[N-(3-(4-Fluorophenyl)propionyl)-D-1-Nal^3 -NMeTyr^5 -D-3-Pal^6 -Lys^8 (N-epsilon-isopropyl)-D-Ala^10]LHRH] ({Propanoyl(3-(4-F-phenyl))}-[d1Nal]S[NMeY][d3Pal]L[Lys(iPr)]P[dA]-NH2)",-269

# System: castrated rats
# Assay: In vivo LH Release
# Parameters: species or system rat
# Conditions: table 3, dose producing half-maximal LH release
# Procedure: (d) In vivo LH Release. The compound to be tested is administered to castrated rats intraveneously and the serum LH concentration at various time points is measured by RIA. The time integrated LH response is calculated and the dose producing half-maximal LH release (ED50) is reported.
row,SMILES,ED50 ug/kg i.v. [µg/kg]
1,"CCNC(=O)[C@@H]1CCCN1C(=O)[C@H](CCCNC(=N)N)NC(=O)[C@H](CC(C)C)NC(=O)[C@@H](Cc1c[nH]c2ccccc12)NC(=O)[C@H](Cc1ccc(O)cc1)NC(=O)[C@H](CO)NC(=O)CCc1c[nH]c2ccccc12 [Compound 24, (4-9)[N-(3-(3-Indole)propionyl)-Ser^4 -D-Trp^6 -Pro^9 -NHEt] LHRH] ({Propanoyl(3-indol-3-yl)}-SY[dW]LRP-NHEt)",6350
2,"CCNC(=O)[C@@H]1CCCN1C(=O)[C@H](CCCNC(=N)N)NC(=O)[C@H](CC(C)C)NC(=O)[C@@H](CCCNC(=N)N)NC(=O)[C@H](Cc1ccc(O)cc1)NC(=O)[C@H](CO)NC(=O)Cc1cccc2ccccc12 [Compound 37, (4-9)[N-(1-Naphthylacetyl)-Ser^4 -D-Arg^6 -Pro^9 -NHEt] LHRH] ({Acetyl(1-naphthyl)}-SY[dR]LRP-NHEt)",168
